Source: the supplement of paper PMC3724861
The list shows a part of the results.

test system: T1, Caupolican (Caup) homeodomain DNA-binding domain; experiment: PBM E-score (8-mer, recovered from the published 9-mer minima) (E-score (dimensionless, -0.5 to 0.5)); Drosophila protein; higher = stronger relative binding preference, active = 0.31 or more
T1 sequence: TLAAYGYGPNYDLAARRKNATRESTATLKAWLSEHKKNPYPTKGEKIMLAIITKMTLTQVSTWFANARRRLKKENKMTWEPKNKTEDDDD
Method in brief: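 Caup's homeodomain DNA-binding domain (residues 214-303) was made by in vitro transcription and translation and applied at 100 nM to custom-designed protein binding microarrays. Each value is an enrichment score that gives relative binding preference for a short DNA word, with higher meaning stronger. The 8-mer values were recovered from published 9-mer scores, each of which was the minimum of its two constituent 8-mer scores. A cutoff of 0.31 marks candidate sites.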

PBM E-score, ≥ 0.0373:
ACGGTCTG

PBM E-score, ≥ 0.177:
ATAATCCA

PBM E-score, active:
AAATACAT 0.338
TAAACATA ≥ 0.367
AAACATAA 0.321
TACAAGTA ≥ 0.407
TATGACAA 0.314
ACATGAGA 0.344
AACAAACA 0.338
TACGAACA 0.31

PBM E-score, ≥ -0.0483:
AGCACGCA

PBM E-score, inactive:
CCAAAGTA 0.0808
CCGGGAGC -0.282
CGCTGTGC -0.176
CAACATCC 0.238
CGACAAGC 0.224
ATGATCTG 0.118
AGGGACCT -0.105
ACAACTGC 0.167
CCGGTCGA -0.211
ATAGGGAG -0.179
GGGTACGA -0.031
ATCTACAT 0.29
ATATCCAG 0.0929
CCCACTTC -0.132
AGGGCGTA -0.103
ATCCTACG -0.0683
CGTGCCGA -0.102
GCACCGGC -0.171
ATTCACGA 0.13
GCCGCCGA -0.132
AGGGATAA 0.0625
GACCCTGC -0.23
CGGTAGGA -0.0619
AGGCAAAG -0.0384
AATGGAGA -0.0659
ACTAGTCT 0.159
ATTTGTTG 0.253
CGTAAGTC -0.0201
ACCATTCG 0.0359
ATTGCAAA 0.139
GGGAAAAC -0.0348
GCCGGCCC -0.278
GACTGTCC -0.0666
CAAGCTTA -0.0396
CAATCAGG -0.0966
CGGTTAGC -0.159
ATTAAGTA 0.145
CGTTAATA 0.0428
GGGACAAC 0.178
GACTAAGC -0.186
CAGCTACA 0.24
GCCTTGCC -0.232
CAATACGA 0.122
GTGCCCAA -0.0344
GAGTATAC 0.199
CTTTAAAA -0.00403
AATCTGAG 0.0132
ATGGGCGC -0.24
ACGGGTTG -0.0634
GGTAAGCA -0.0386
AAACCCCT -0.173
ATTAGAAC 0.112
TCTGTTAA 0.173
TCAGGGCA -0.0124
TGCATCCA 0.0126
ACTACGCT 0.0173
GCACACCC -0.143
CCGAAGTC -0.1
CTACGCCA -0.123
CAACTTAG 0.107
AAACGGAG -0.155
GATTGTAA 0.205
AAGCTATT 0.0401
ACGACGAG 0.0889
CTGTTATA 0.187
CCTGCGTC -0.102
CAACGGGC -0.114
AAATTTAG 0.0333
GCCAACGA -0.111
CCGGAGCG -0.225
GACGGTCC -0.265
ACAAGTTG 0.286
GATGTTCA 0.303
AGAGATCT -0.0272
AGGCACAA -0.0205
GAACCGTC -0.0799
ACGGGCTC -0.222
GAGTTACC -0.0268
ACGGTTCA -0.106
CAGAGCTC -0.22
GCACCAAC -0.125
GCGCGACA 0.0595
CAGCATAC 0.0483
CCCCACTA -0.181
AGACGCGG -0.112
GCCACTTA -0.0381
ATCTATTG 0.0391
GAGGTGCC -0.193
GGGAATGA 0.0175
AAAAACTG 0.0692
GAGGCTAA 0.0337
CGGCAGGA -0.238
CGGTGGCC -0.244
ACGCTAGT -0.0382
TAGATGAA 0.0677
CCCGCAAC -0.109
CTACTGCC -0.116
GCCCTTGA -0.0834
CGGAAGAA -0.109
CAACCTCA -0.0651
CAAATTGA 0.0427
